# Data as given in US20260166128A1, “HUMAN AMYLIN ANALOG, AND DERIVATIVE THEREOF AND USE THEREOF” (priority 2022, published 2026).
# Part of at least one peptide drawing is inferred or uncertain, most often the ends. Numbered stars: 1 amine (or outer) side, 2 acyl side, 3 side chain; on linkers, the order of the positions; unused ones are H or OH. Bridge positions count the residues as written; N and C are the ends. Square brackets hold non-standard residues; d marks the D form. Side chains are listed from the residue outwards. Peptide text beside a SMILES is read from it. * marks the point of attachment. C20 diacid = O=C(O)CCCCCCCCCCCCCCCCCCC(=O)*; C18 diacid = O=C(O)CCCCCCCCCCCCCCCCC(=O)*; γGlu = O=C(O)[C@H](CCC(=O)[*:2])N[*:1]; Hyp = O=C(O)[C@@H]1C[C@@H](O)CN1; AEEA = NCCOCCOCC(=O)O
# Test: Freeze-thaw stability of derivatives (freeze-thaw yield by liquid chromatography)
# Assay type: physicochemical
# Settings: for Dissolution property: appearance after dissolution at 0.2 mg/ml in 20 mM phosphate buffer solution (PB) (pH 7.0); for Freeze storage property: appearance after overnight storage at −20° C. and thawing to room temperature, 0.2 mg/ml in 20 mM PB (pH 7.0); for Freeze storage yield: concentration of polypeptide after freezing and thawing / concentration before, by liquid chromatography, −20° C. overnight
# How it was run: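 Lyophilised peptide derivative dissolved at 0.2 mg/ml in 20 mM phosphate buffer, pH 7.0, frozen overnight at −20° C, then thawed at room temperature. Peptide concentration before and after freeze-thaw measured by reversed-phase HPLC on centrifuged supernatant; yield = post-thaw/pre-thaw concentration.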
Compound,Dissolution property,Freeze storage property,Freeze storage yield [%]
CC[C@H](C)[C@H](NC(=O)[C@@H]1CCCN1C(=O)CNC(=O)[C@H](CC(C)C)NC(=O)[C@H](CC(N)=O)NC(=O)[C@H](CCCCNC(=O)COCCOCCNC(=O)CC[C@H](NC(=O)CCCCCCCCCCCCCCCCC(=O)O)C(=O)O)NC(=O)[C@H](CO)NC(=O)[C@H](CO)NC(=O)[C@H](Cc1c[nH]cn1)NC(=O)[C@H](CCCNC(=N)N)NC(=O)[C@H](CC(C)C)NC(=O)[C@H](Cc1ccccc1)NC(=O)[C@H](CC(=O)O)NC(=O)[C@H](C)NC(=O)[C@H](CC(C)C)NC(=O)[C@H](CCCNC(=N)N)NC(=O)[C@H](CCC(N)=O)NC(=O)[C@@H](NC(=O)[C@H](C)NC(=O)[C@@H]1CSSC[C@H](NC(=O)[C@@H](N)CCCNC(=N)N)C(=O)N[C@@H](CC(N)=O)C(=O)N[C@@H]([C@@H](C)O)C(=O)N[C@@H](C)C(=O)N[C@@H]([C@@H](C)O)C(=O)N1)[C@@H](C)O)C(=O)N[C@@H](CC(C)C)C(=O)N1CCC[C@H]1C(=O)N1CCC[C@H]1C(=O)N[C@H](C(=O)N[C@@H](CC(N)=O)C(=O)N[C@H](C(=O)NCC(=O)N[C@@H](CO)C(=O)N[C@@H](CC(N)=O)C(=O)N[C@H](C(=O)N1C[C@H](O)C[C@H]1C(N)=O)[C@@H](C)O)C(C)C)[C@@H](C)O [PD115] (H-RCNTATCATQRLADFLRHSSK([AEEA-γGlu-C18 diacid])NLGPILPPTNVGSNT[Hyp]-NH2; disulfide 2-7),Clear,Clear,104.27
CC[C@H](C)[C@H](NC(=O)[C@@H]1CCCN1C(=O)CNC(=O)[C@H](CC(C)C)NC(=O)[C@H](CC(N)=O)NC(=O)[C@H](CC(N)=O)NC(=O)[C@H](CCCCNC(=O)COCCOCCNC(=O)CC[C@H](NC(=O)CCCCCCCCCCCCCCCCCCC(=O)O)C(=O)O)NC(=O)[C@H](CO)NC(=O)[C@H](Cc1c[nH]cn1)NC(=O)[C@H](CCCNC(=N)N)NC(=O)[C@H](CC(C)C)NC(=O)[C@H](Cc1ccccc1)NC(=O)[C@H](CC(=O)O)NC(=O)[C@H](C)NC(=O)[C@H](CC(C)C)NC(=O)[C@H](CCCNC(=N)N)NC(=O)[C@H](CCC(N)=O)NC(=O)[C@@H](NC(=O)[C@H](C)NC(=O)[C@@H]1CSSC[C@H](NC(=O)[C@@H](N)CCCNC(=N)N)C(=O)N[C@@H](CC(N)=O)C(=O)N[C@@H]([C@@H](C)O)C(=O)N[C@@H](C)C(=O)N[C@@H]([C@@H](C)O)C(=O)N1)[C@@H](C)O)C(=O)N[C@@H](CC(C)C)C(=O)N1CCC[C@H]1C(=O)N1CCC[C@H]1C(=O)N[C@H](C(=O)N[C@@H](CC(N)=O)C(=O)N[C@H](C(=O)NCC(=O)N[C@@H](CO)C(=O)N[C@@H](CC(N)=O)C(=O)N[C@H](C(=O)N1C[C@H](O)C[C@H]1C(N)=O)[C@@H](C)O)C(C)C)[C@@H](C)O [PD116] (H-RCNTATCATQRLADFLRHSK([AEEA-γGlu-C20 diacid])NNLGPILPPTNVGSNT[Hyp]-NH2; disulfide 2-7),Clear,Clear,102.48
CC[C@H](C)[C@H](NC(=O)[C@@H]1CCCN1C(=O)CNC(=O)[C@H](CC(C)C)NC(=O)[C@H](CC(N)=O)NC(=O)[C@H](CC(N)=O)NC(=O)[C@H](CO)NC(=O)[C@H](CCCCNC(=O)COCCOCCNC(=O)CC[C@H](NC(=O)CCCCCCCCCCCCCCCCCCC(=O)O)C(=O)O)NC(=O)[C@H](Cc1c[nH]cn1)NC(=O)[C@H](CCCNC(=N)N)NC(=O)[C@H](CC(C)C)NC(=O)[C@H](Cc1ccccc1)NC(=O)[C@H](CC(=O)O)NC(=O)[C@H](C)NC(=O)[C@H](CC(C)C)NC(=O)[C@H](CCCNC(=N)N)NC(=O)[C@H](CCC(N)=O)NC(=O)[C@@H](NC(=O)[C@H](C)NC(=O)[C@@H]1CSSC[C@H](NC(=O)[C@@H](N)CCCNC(=N)N)C(=O)N[C@@H](CC(N)=O)C(=O)N[C@@H]([C@@H](C)O)C(=O)N[C@@H](C)C(=O)N[C@@H]([C@@H](C)O)C(=O)N1)[C@@H](C)O)C(=O)N[C@@H](CC(C)C)C(=O)N1CCC[C@H]1C(=O)N1CCC[C@H]1C(=O)N[C@H](C(=O)N[C@@H](CC(N)=O)C(=O)N[C@H](C(=O)NCC(=O)N[C@@H](CO)C(=O)N[C@@H](CC(N)=O)C(=O)N[C@H](C(=O)N1C[C@H](O)C[C@H]1C(N)=O)[C@@H](C)O)C(C)C)[C@@H](C)O [PD118] (H-RCNTATCATQRLADFLRHK([AEEA-γGlu-C20 diacid])SNNLGPILPPTNVGSNT[Hyp]-NH2; disulfide 2-7),Clear,Clear,104.70
CC[C@H](C)[C@H](NC(=O)[C@H](CCCCNC(=O)COCCOCCNC(=O)CC[C@H](NC(=O)CCCCCCCCCCCCCCCCC(=O)O)C(=O)O)NC(=O)CNC(=O)[C@H](CC(C)C)NC(=O)[C@H](CC(N)=O)NC(=O)[C@H](CC(N)=O)NC(=O)[C@H](CO)NC(=O)[C@H](CO)NC(=O)[C@H](Cc1c[nH]cn1)NC(=O)[C@H](CCCNC(=N)N)NC(=O)[C@H](CC(C)C)NC(=O)[C@H](Cc1ccccc1)NC(=O)[C@H](CC(=O)O)NC(=O)[C@H](C)NC(=O)[C@H](CC(C)C)NC(=O)[C@H](CCCNC(=N)N)NC(=O)[C@H](CCC(N)=O)NC(=O)[C@@H](NC(=O)[C@H](C)NC(=O)[C@@H]1CSSC[C@H](NC(=O)[C@@H](N)CCCNC(=N)N)C(=O)N[C@@H](CC(N)=O)C(=O)N[C@@H]([C@@H](C)O)C(=O)N[C@@H](C)C(=O)N[C@@H]([C@@H](C)O)C(=O)N1)[C@@H](C)O)C(=O)N[C@@H](CC(C)C)C(=O)N1CCC[C@H]1C(=O)N1CCC[C@H]1C(=O)N[C@H](C(=O)N[C@@H](CC(N)=O)C(=O)N[C@H](C(=O)NCC(=O)N[C@@H](CO)C(=O)N[C@@H](CC(N)=O)C(=O)N[C@H](C(=O)N1C[C@H](O)C[C@H]1C(N)=O)[C@@H](C)O)C(C)C)[C@@H](C)O [PD121] (H-RCNTATCATQRLADFLRHSSNNLGK([AEEA-γGlu-C18 diacid])ILPPTNVGSNT[Hyp]-NH2; disulfide 2-7),Clear,Clear,102.87
CC[C@H](C)[C@H](NC(=O)[C@@H]1CCCN1C(=O)CNC(=O)[C@H](CC(C)C)NC(=O)[C@H](CC(N)=O)NC(=O)[C@H](CC(N)=O)NC(=O)[C@H](CO)NC(=O)[C@H](CO)NC(=O)[C@H](Cc1c[nH]cn1)NC(=O)[C@H](CCCNC(=N)N)NC(=O)[C@H](CC(C)C)NC(=O)[C@H](Cc1ccccc1)NC(=O)[C@H](CC(=O)O)NC(=O)[C@H](C)NC(=O)[C@H](CC(C)C)NC(=O)[C@H](CCCNC(=N)N)NC(=O)[C@H](CCC(N)=O)NC(=O)[C@@H](NC(=O)[C@H](C)NC(=O)[C@@H]1CSSC[C@H](NC(=O)[C@H](CCCCN)NC(=O)COCCOCCNC(=O)CC[C@H](NC(=O)CCCCCCCCCCCCCCCCCCC(=O)O)C(=O)O)C(=O)N[C@@H](CC(N)=O)C(=O)N[C@@H]([C@@H](C)O)C(=O)N[C@@H](C)C(=O)N[C@@H]([C@@H](C)O)C(=O)N1)[C@@H](C)O)C(=O)N[C@@H](CC(C)C)C(=O)N1CCC[C@H]1C(=O)N1CCC[C@H]1C(=O)N[C@H](C(=O)N[C@@H](CC(N)=O)C(=O)N[C@H](C(=O)NCC(=O)N[C@@H](CO)C(=O)N[C@@H](CC(N)=O)C(=O)N[C@H](C(=O)N1C[C@H](O)C[C@H]1C(N)=O)[C@@H](C)O)C(C)C)[C@@H](C)O [PD122] ({C20 diacid-γGlu-AEEA}-KCNTATCATQRLADFLRHSSNNLGPILPPTNVGSNT[Hyp]-NH2; disulfide 2-7),Clear,Clear,103.66
CC[C@H](C)[C@H](NC(=O)[C@@H]1CCCN1C(=O)CNC(=O)[C@H](CC(C)C)NC(=O)[C@H](CC(N)=O)NC(=O)[C@H](CC(N)=O)NC(=O)[C@H](CO)NC(=O)[C@H](CO)NC(=O)[C@H](Cc1c[nH]cn1)NC(=O)[C@H](CCCNC(=N)N)NC(=O)[C@H](CC(C)C)NC(=O)[C@H](Cc1ccccc1)NC(=O)[C@H](CC(=O)O)NC(=O)[C@H](C)NC(=O)[C@H](CC(C)C)NC(=O)[C@H](CCCNC(=N)N)NC(=O)[C@H](CCC(N)=O)NC(=O)[C@@H](NC(=O)[C@H](C)NC(=O)[C@@H]1CSSC[C@H](NC(=O)[C@H](CCCCN)NC(=O)CC[C@H](NC(=O)CCCCCCCCCCCCCCCCC(=O)O)C(=O)O)C(=O)N[C@@H](CC(N)=O)C(=O)N[C@@H]([C@@H](C)O)C(=O)N[C@@H](C)C(=O)N[C@@H]([C@@H](C)O)C(=O)N1)[C@@H](C)O)C(=O)N[C@@H](CC(C)C)C(=O)N1CCC[C@H]1C(=O)N1CCC[C@H]1C(=O)N[C@H](C(=O)N[C@@H](CC(N)=O)C(=O)N[C@H](C(=O)NCC(=O)N[C@@H](CO)C(=O)N[C@@H](CC(N)=O)C(=O)N[C@H](C(=O)N1C[C@H](O)C[C@H]1C(N)=O)[C@@H](C)O)C(C)C)[C@@H](C)O [PD124] ({C18 diacid-γGlu}-KCNTATCATQRLADFLRHSSNNLGPILPPTNVGSNT[Hyp]-NH2; disulfide 2-7),Clear,Clear,91.04
CC[C@H](C)[C@H](NC(=O)[C@@H]1CCCN1C(=O)CNC(=O)[C@H](CC(C)C)NC(=O)[C@H](CC(N)=O)NC(=O)[C@H](CC(N)=O)NC(=O)[C@H](CO)NC(=O)[C@H](CO)NC(=O)[C@H](Cc1c[nH]cn1)NC(=O)[C@H](CCCNC(=N)N)NC(=O)[C@H](CC(C)C)NC(=O)[C@H](Cc1ccccc1)NC(=O)[C@H](CC(=O)O)NC(=O)[C@H](C)NC(=O)[C@H](CC(C)C)NC(=O)[C@H](CCCNC(=N)N)NC(=O)[C@H](CCC(N)=O)NC(=O)[C@@H](NC(=O)[C@H](C)NC(=O)[C@@H]1CSSC[C@H](NC(=O)[C@H](CCCNC(=N)N)NC(=O)CC[C@H](NC(=O)CCCCCCCCCCCCCCCCCCC(=O)O)C(=O)O)C(=O)N[C@@H](CC(N)=O)C(=O)N[C@@H]([C@@H](C)O)C(=O)N[C@@H](C)C(=O)N[C@@H]([C@@H](C)O)C(=O)N1)[C@@H](C)O)C(=O)N[C@@H](CC(C)C)C(=O)N1CCC[C@H]1C(=O)N1CCC[C@H]1C(=O)N[C@H](C(=O)N[C@@H](CC(N)=O)C(=O)N[C@H](C(=O)NCC(=O)N[C@@H](CO)C(=O)N[C@@H](CC(N)=O)C(=O)N[C@H](C(=O)N1C[C@H](O)C[C@H]1C(N)=O)[C@@H](C)O)C(C)C)[C@@H](C)O [PD127] ({C20 diacid-γGlu}-RCNTATCATQRLADFLRHSSNNLGPILPPTNVGSNT[Hyp]-NH2; disulfide 2-7),Clear,Clear,101.18
